# Counter-ions that a name gives are not always drawn. ± gives the standard deviation of the averaged measurements. Over roughly 1,300 compounds, “normalised cell viability” has its median near 1; the lowest 2% begin near 0.14. This is one part of the list.
# Tested on: V-C8 (BRCA2-deficient hamster cells)
# Experiment: normalised cell viability (fraction of plate median); higher = more viable cells (less toxic)
# Details: 5 µM
# Method in brief: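 Library drugs, held as 10 mM stocks in DMSO, were diluted to 5 μM in 100 μl medium and added to 96-well plates of V-C8 hamster cells, either lacking BRCA2 or with BRCA2 restored, 24 h after seeding. Plates ran for 3 days (screen 1) or 6 days (screen 2), alongside solvent-only wells. Viability came from a resazurin readout, median-plate normalised, as the mean of triplicate wells.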
SMILES,normalised cell viability (treatment time: 3 days),normalised cell viability (treatment time: 6 days)
C[C@H](CS)C(=O)N1CCC[C@H]1C(=O)O [Captopril],0.99 ± 0.03,1.02 ± 0.031
CN(Cc1cc(Br)cc(Br)c1N)C1CCCCC1 [Bromhexine hydrochloride],0.977 ± 0.078,1.04 ± 0.024
CC1(C)O[C@@H]2C[C@H]3[C@@H]4C[C@H](F)C5=CC(=O)C=C[C@]5(C)[C@H]4[C@@H](O)C[C@]3(C)[C@]2(C(=O)CO)O1 [Flunisolide],0.984 ± 0.067,1.07 ± 0.072
Cc1c(Nc2ncccc2C(=O)O)cccc1C(F)(F)F [Flunixin meglumine],1.1 ± 0.11,1.03 ± 0.037
CC[C@H](c1ccc(O)cc1)[C@@H](CC)c1ccc(O)cc1 [Hexestrol],1.01 ± 0.041,0.982 ± 0.11
Nc1nc(N)c2nc(-c3ccccc3)c(N)nc2n1 [Triamterene],0.9263 ± 0.0054,0.892 ± 0.14
CC(C)(C)NC(=O)[C@H]1CC[C@H]2[C@@H]3CC[C@H]4NC(=O)C=C[C@]4(C)[C@H]3CC[C@]12C [Finasteride],0.899 ± 0.031,0.893 ± 0.026
Cn1nnc2c(C(N)=O)ncn2c1=O [Temozolomide],1.07 ± 0.062,0.85 ± 0.022
CCCCOc1ccc(C(=O)CCN2CCCCC2)cc1 [Dyclonine hydrochloride],1.07 ± 0.092,1.04 ± 0.039
C=C1C(=O)O[C@H]2[C@H]1CC/C(C)=C/CC[C@@]1(C)O[C@@H]21 [Parthenolide],0.199 ± 0.017,0.416 ± 0.11
CC(CN(C)C)CN1c2ccccc2CCc2ccccc21 (configuration not stated) [Trimipramine maleate salt],1.023 ± 0.01,1.21 ± 0.3
CC(C)NCC(O)COc1cccc2[nH]ccc12 (configuration not stated) [Pindolol],0.983 ± 0.067,1.02 ± 0.085
OC(CCN1CCCC1)(c1ccccc1)C1CCCCC1 (configuration not stated) [Procyclidine hydrochloride],0.973 ± 0.037,0.967 ± 0.089
CC(C)C(=O)c1c(C(C)C)nn2ccccc12 [Ibudilast],1.01 ± 0.046,1.04 ± 0.011
Nc1ccc(C(=O)O)c(O)c1 [4-aminosalicylic acid],1.17 ± 0.17,1.01 ± 0.013
O=C1Nc2ccc(Cl)cc2[C@@](C#CC2CC2)(C(F)(F)F)O1 [Efavirenz],1 ± 0.071,1.01 ± 0.032
Clc1ccc(C(c2ccccc2Cl)C(Cl)Cl)cc1 (configuration not stated) [Mitotane],0.955 ± 0.031,0.997 ± 0.045
O=C1O[C@H]([C@@H](O)CO)C(O)=C1O [Ascorbic acid],1.1 ± 0.028,1.04 ± 0.021
CC[N+](C)(CC)CCC[n+]1c(-c2ccccc2)c2cc(N)ccc2c2ccc(N)cc21 [Propidium iodide],0.892 ± 0.035,0.944 ± 0.043
O=C(O)c1ccccc1Nc1cccc(C(F)(F)F)c1 [Flufenamic acid],1.02 ± 0.029,0.982 ± 0.015
CCC(=O)O[C@]1(C(=O)SCF)[C@H](C)C[C@H]2[C@@H]3C[C@H](F)C4=CC(=O)C=C[C@]4(C)[C@@]3(F)[C@@H](O)C[C@@]21C [Fluticasone propionate],0.876 ± 0.12,0.895 ± 0.034

# — the supplement of paper PMC6609913
